Substitutions are numbered along the chain they refer to; changes in the protein carry UniProt numbers. The list shows a part of the results.

Sequences and labels used below:
T1: RBFOX1 RRM (Homo sapiens, UniProt Q9NWB1 109-208)
T1 sequence: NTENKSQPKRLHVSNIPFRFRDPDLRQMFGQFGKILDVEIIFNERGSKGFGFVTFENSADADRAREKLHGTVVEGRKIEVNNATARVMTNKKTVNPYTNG

B1: CUCAGUC (DNA:RNA)
RNA: GGGAGACCGGAAUUCAGAUUGUCCCUCAGUCUUAAAUCCCGUCGUAGCCACCA
DNA 1: CAATCTGAATTCCGGTCTCCC
DNA 2: TGGTGGCTACGACGGGATT
B2: CCUCGAG (DNA:RNA)
RNA: B1 RNA with U26C, C27U, A28C, U30A, C31G
DNA 1: CAATCTGAATTCCGGTCTCCC
DNA 2: TGGTGGCTACGACGGGATT
B3: UGUGAGU (DNA:RNA)
RNA: GGGAGACCGGAAUUCAGAUUGUCCUGUGAGUUUAAAUCCCGUCGUAGCCACCA
DNA 1: CAATCTGAATTCCGGTCTCCC
DNA 2: TGGTGGCTACGACGGGATT
B4: CUGUAGA (DNA:RNA)
RNA: B1 RNA with C27G, A28U, G29A, U30G, C31A
DNA 1: CAATCTGAATTCCGGTCTCCC
DNA 2: TGGTGGCTACGACGGGATT
B5: GCCCUGG (DNA:RNA)
RNA: B1 RNA with C25G, U26C, A28C, G29U, U30G, C31G
DNA 1: CAATCTGAATTCCGGTCTCCC
DNA 2: TGGTGGCTACGACGGGATT
B6: UCAGCUC (DNA:RNA)
RNA: B1 RNA with C25U, U26C, C27A, A28G, G29C
DNA 1: CAATCTGAATTCCGGTCTCCC
DNA 2: TGGTGGCTACGACGGGATT
B7: ACUUGUG (DNA:RNA)
RNA: B1 RNA with C25A, U26C, C27U, A28U, C31G
DNA 1: CAATCTGAATTCCGGTCTCCC
DNA 2: TGGTGGCTACGACGGGATT
B8: UAAGUUC (DNA:RNA)
RNA: B1 RNA with C25U, U26A, C27A, A28G, G29U
DNA 1: CAATCTGAATTCCGGTCTCCC
DNA 2: TGGTGGCTACGACGGGATT
B9: UCGCCAC (DNA:RNA)
RNA: B1 RNA with C25U, U26C, C27G, A28C, G29C, U30A
DNA 1: CAATCTGAATTCCGGTCTCCC
DNA 2: TGGTGGCTACGACGGGATT

In this assay the target is T1, RBFOX1 RRM. Briefly: EMSA; HiTS-Eq, 1 nM pool, 10 min; buffer printed only for the single-RNA assays: 10 mM Tris pH 7.5, 150 mM NaCl, 3.4 mM EDTA, 0.001% NP-40, 30 C. The conditions noted are these: tags: His6 N-terminal (pET28a); label: 5' 32P. Summed up:
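Purified RbFox RRM, wild type or mutant, was incubated for 10 min in 50 µL with 1 nM of a 5′-radiolabelled RNA pool carrying 7 randomized nucleotides, whose flanks were annealed to DNA oligonucleotides, over a series of increasing protein concentrations. Unbound RNA was resolved on 8% native PAGE, cut out, reverse-transcribed, barcoded by PCR and sequenced on an Illumina HiSeq 2500. Relative association constants were derived from changes in read counts for each RNA species versus the control reaction and normalised to the cognate motif.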
A general note: A gel shift assay detects complexes by their altered migration in electrophoresis.
As to B1, the binding signal is 0.00839 KA relative to UGCAUGU. In the case of B2, the binding signal was 0.00815 KA relative to UGCAUGU. Turning to B3, the binding signal is 0.0271 KA relative to UGCAUGU. The figure for B4 is 0.0127 KA relative to UGCAUGU. As for B5, the binding signal was 0.0197 KA relative to UGCAUGU. For the molecule B6, the binding signal was 0.00672 KA relative to UGCAUGU.

As to B7, the binding signal was 0.0124 KA relative to UGCAUGU. Consider B8, for which the binding signal was 0.016 KA relative to UGCAUGU.

For B9, the binding signal is 0.00696 KA relative to UGCAUGU.

Source of the values: publication PMC9911399, “Two distinct binding modes provide the RNA-binding protein RbFox with extraordinary sequence specificity”.
